# Test results: patent publication US20240092835A1, “NOVEL PEPTIDES CAPABLE OF ALTERING NK CELL ACTIVITY” (Massachusetts Institute of Technology, priority 2022, published 2024)
# B1: … (LFL) (peptide)
# peptide: VMAPRTLFL
# modifications: not checked
# B2: AKAP6388-396 (human2) (peptide)
# peptide: TLPKRGLFL
# modifications: not checked
# B3: ECEL1269-277 (human7) (peptide)
# peptide: TLPERTLYL
# modifications: not checked
# B4: SLC52A3354-362 (human8) (peptide)
# peptide: FLPNRSLLF
# modifications: not checked
# B5: TACR3226-234 (human11) (peptide)
# peptide: VMPGRTLCF
# modifications: not checked
# B6: INTS1260-268 (human12) (peptide)
# peptide: RMPPRSVLL
# modifications: not checked
# B7: PISD55-63 (human13) (peptide)
# peptide: TAPARTMFL
# modifications: not checked
# B8: MTREX490-498 (human14) (peptide)
# peptide: NMPARTVLF
# modifications: not checked
# B9: CREB3L1419-427 (human1) (peptide)
# peptide: QMPSRSLLF
# modifications: not checked
# Molecular target: HLA-E on RMA-S/HLA-E cells (human), P13747
# Sequence (P13747 22-358): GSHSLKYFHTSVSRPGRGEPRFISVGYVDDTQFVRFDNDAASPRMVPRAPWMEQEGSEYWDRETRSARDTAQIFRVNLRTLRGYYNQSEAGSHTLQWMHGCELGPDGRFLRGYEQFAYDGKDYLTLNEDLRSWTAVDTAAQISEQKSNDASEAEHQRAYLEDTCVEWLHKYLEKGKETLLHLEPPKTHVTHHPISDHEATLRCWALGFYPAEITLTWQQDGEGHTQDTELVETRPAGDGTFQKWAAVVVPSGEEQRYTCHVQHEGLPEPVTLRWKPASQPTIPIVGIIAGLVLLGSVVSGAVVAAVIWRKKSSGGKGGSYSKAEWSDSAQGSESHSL
# Test: RMA-S/HLA-E cells, 30 uM peptide 16 h, anti-HLA-E flow cytometry
row,Binder,GeoMFI (HLA-E surface stabilization)
1,B1,"3480, 3310, 3920, 4060 GeoMFI [columns of one line]"
2,B2,"2020, 2030, 1730, 2800 GeoMFI [columns of one line]"
3,B3,"3200, 3540, 3900, 4460 GeoMFI [columns of one line]"
4,B4,"1070, 813, 1050, 1650 GeoMFI [columns of one line]"
5,B5,"3150, 2910, 3430, 3610 GeoMFI [columns of one line]"
6,B6,"3780, 4220, 4270, 4700 GeoMFI [columns of one line]"
7,B7,"851, 887, 673, 1190 GeoMFI [columns of one line]"
8,B8,"1300, 1360, 1000, 1740 GeoMFI [columns of one line]"
9,B9,"2460, 1760, 2270, 2500 GeoMFI [columns of one line]"

# Some entries of the source have several records that differ or are many. This is not the full list of results. There may be further records. Results that share an entry appear to be repeats (runs, samples, wells or individuals); one of them may be the mean.
